Assay results reported in PubChem BioAssay AID1963576 (National Center for Advancing Translational Sciences (NCATS), 2024).
Among all 46,000 compounds or so, about 60 (0.1%) were called active. Roughly 3% stayed inconclusive and do not appear here. Calls follow the shape of the dose curve; as a rule, active = well fitted inhibition curve with a large enough effect; inconclusive = small, poorly fitted or top-dose-only effect; inactive = no such curve, though single readings can be large or run the other way. The list shows a part of the results.

Experiment: Primary qHTS assay for Inhibitors of ovarian cancer metastasis using an organotypic tumor microenvironment (TME) model. Also: nearly all actives have a fitted effect of over 65% in size.
Conditions: SKOV3ip1-GFP adhesion/invasion on 3D omental model, fluorescence; series mostly up to 45.8 µM; activity change, negative = inhibition: at the top concentration
From the text: PI: Ernst Lengyel MD., Ph.D. Department of Obstetrics and Gynecology, Section of Gynecologic Oncology University of Chicago Medicine, Chicago, Illinois. The tumor microenvironment (TME) is a key determinant of metastatic efficiency. We performed a quantitative high-throughput screen (qHTS) of diverse medicinal chemistry tractable scaffolds (44,420 compounds) and pharmacologically active small molecules (386 compounds) using a layered organotypic, robust assay representing the ovarian cancer metastatic TME. This 3D model contains primary human mesothelial cells, fibroblasts, and extracellular matrix, to which fluorescently labeled ovarian cancer cells are added. Initially, 100 compounds inhibiting ovarian cancer adhesion/invasion to the 3D model in a dose-dependent manner were identified. Of those, eight compounds were confirmed active in five high-grade serous ovarian cancer cell lines and were further validated in secondary in vitro and in vivo biological assays. […] Specifically, NCGC00117362 and PP-121 inhibited ovarian cancer adhesion, invasion, and proliferation, whereas milciclib inhibited ovarian cancer invasion and proliferation. […] To evaluate the clinical potential of NCGC00117362, structure - activity relationship studies were performed. […] The three compounds identified have promise as therapeutics for prevention and treatment of ovarian cancer metastasis.
PROTOCOL TABLE (as described by Inglese J, Shamu CE and Guy RK. 2007) SEQUENCE No. (e.g., 1, 2, 3, etc.); […] (e.g., Cells, Incubation, Reagent, etc.); VALUE; DESCRIPTION. 1; Cells; 4 uL; primary human omental fibroblast, black, clear bottom, low base, 1536-well Aurora assay plate. 2; Incubation; 48 hr; 37C. 3; Cells; 3 uL; 1,200 SKOV3ip1-GFP cells. 4; Compounds; 23nL; acoustic dispenser. 5; Incubation; 2 hr; room temperature. 6; Incubation; 16 hr; 37C. 7; Wash; 5 uL; 1x PBS. 8; Fixing; 5 uL; 4% paraformaldehyde (PFA). 9; Incubation; 15 min; room temperature 10; Wash, 5 uL; 1x PBS. 11; Detection; Fluorescence, excitation filter 488 nm, emission filter 509 nm. NOTES (numbers refer to Sequence numbers above) 1. For the 1,536-well format, 40 primary human omental fibroblasts and 400 mesothelial cells were seeded with 0.02 µg fibronectin and 0.02 µg collagen type I in 4 µL of growth media (2.3 mm2; Supplementary Fig. S1A). 2. Assay plates were incubated for 48 hours at 37 C. 3. After incubation, 1,200 SKOV3ip1-GFP were seeded in 3 µL of serum-free media (growth media minus FBS) on top of primary human omental cells. 4. Compounds or controls were added to each well immediately after the addition of the cancer cells. Compounds were screened in four doses (0.36-46 µmol/L), and the plates contained the positive control (Tomatine) in eight doses (0.035-75 µmol/L) and DMSO (equal volume controls) 5 - 6. The plates were incubated at room temperature for 2 hours and then at 37 degrees C for 16 hours. 7 - 10. Following incubation, the media were aspirated and each well washed with PBS (5 µL) and then fixed with 4% paraformaldehyde (PFA; 5 µL). After 15 minutes, the PFA solution was aspirated, PBS (5 µL) was added. 11. The number of GFP-labeled cells analyzed using a fluorescent cytometer TTP LabTech Acumen eX3 using 488 nm excitation filter and 509 nm emission filter. Data was normalized to the DMSO treated for negative and Tomatine treated wells for positive control. REFERENCES: Inglese J, Shamu CE and Guy RK, Reporting data from high throughput screening of small molecule libraries, Nature Chemical Biology, 2007, 3(8): 438-441. doi.org/10.1038/nchembio0807-438. Yasgar A, Shinn P, Jadhav A, Auld DS, Michael S, Zheng W, Austin CP, Inglese J and Simeonov A, Compound Management for Quantitative High-Throughput Screening. J. Assoc. Lab. Auto., 2008, 13: 79-89. doi: 10.1016/j.jala.2007.12.004.

Activity change, negative = inhibition, inactive:
CN(C)S(=O)(=O)N(CC(=O)Nc1ccc(Br)cc1F)c1ccccc1 -3.93%
COc1ccc(CCNc2ncnc3c2nnn3C)cc1OC 14.5%
CCc1ccc(NC(=O)CSc2nc(-c3ccccc3)no2)cc1 -3.63%
CCc1ccc(NC(=O)C(=O)NCCc2sc(-c3ccc(OC)c(OC)c3)nc2C)cc1 9.17%
COc1cc(OC)cc(C(=O)NCCc2csc(-c3cccc(C)c3)n2)c1 -15.1%
CC1CCCCN1C(=O)c1ccc2c(c1)N(Cc1ccc(Cl)cc1)C(=O)c1ccccc1S2=O (stereo not drawn) 5.3%
Cc1c(C(=O)Nc2cccc(F)c2)sc2nc(-c3cc4ccccc4oc3=O)[nH]c(=O)c12 -6.82%
COc1ccc(NC(=O)c2c(NCc3cccs3)sc3c2CCCCC3)cc1 -9.61%
CN(C1CCCCC1)S(=O)(=O)c1ccc(F)c(C(=O)Nc2ccc(C(F)(F)F)cc2)c1 -1.56%
Cc1ccc(-n2nc(C)c3c(C)cc(=O)n(CC(=O)Nc4ccc(C(C)C)cc4)c32)cc1 4.28%
COc1cccc(C(c2sc3nc(-c4ccco4)nn3c2O)N2CCCC2)c1 (stereo not drawn) -0.148%
Cc1nnc(N2CCN(c3ccc(Cl)cc3)CC2)c2c1nnn2Cc1ccc(F)cc1 -2.46%
CC(C)C(=O)NC1CC(=O)N(c2ccc3c(c2)OCCO3)C1 (stereo not drawn) -0.78%
COc1ccccc1Cn1ccn(CC(=O)Nc2c(C)cc(C)cc2C)c(=O)c1=O -6.83%
CCc1cccc(NC(=O)c2cc(-c3ccccc3)n[nH]2)c1 -4.05%
COc1cccc(OCCCn2c(-c3ccc(Cl)cc3)nc3ccccc3c2=O)c1 5.16%
O=C(c1ccc2c(c1)CCN2S(=O)(=O)c1ccc(Cl)cc1)N1CCN(c2ccccc2F)CC1 19.8%
Cc1ccccc1Cn1c(=O)n(Cc2ccco2)c(=O)c2oc3ccccc3c21 0.177%
CCCCNC(=O)c1cnc2sc(N3CCCCC3)nn2c1=O -8.9%
CCOC(=O)C1CCN(C(=O)c2nn(-c3ccc(C)cc3)c(=O)c3c2c2ccccc2n3C)CC1 -9.52%
CCOc1ccccc1N1CC(c2nc3ccccc3n2CCCOc2ccccc2)CC1=O (stereo not drawn) 2.68%
CC(C)N(Cc1ccccc1)C(=O)c1cc2ccc3cccnc3c2[nH]1 7.34%
Cc1nc2c(c(SCC(=O)Nc3ccccc3C(F)(F)F)n1)CCC2 -9.24%
Cc1cc(OC(C)C(=O)N2CCN(CCc3ccccn3)CC2)ccc1Cl (stereo not drawn) -7.39%
Cc1c(F)cccc1NS(=O)(=O)c1cccs1 17.8%
CN(C)c1ccc(CN2CCc3nc(N4CCN(c5ccccn5)CC4)ncc3C2)cc1 -12.7%
O=C(Cc1csc2ccccc12)NCc1ccc(F)cc1 -3.76%
O=C(Nc1ccc(OC(F)(F)F)cc1)C1CCCN(S(=O)(=O)c2ccc(Br)s2)C1 (stereo not drawn) 9.69%
COc1ccc(S(=O)(=O)NC(C)C)cc1-n1cnnn1 -6.47%
COc1ccc(C(C(=O)Nc2ccc(C(C)C)cc2)N(C)C(=O)Cc2cccs2)cc1 (stereo not drawn) -7.45%
COc1cccc(NC(c2nnc(-c3ccccc3)o2)c2ccc(F)cc2Cl)c1 (stereo not drawn) 2.11%
COc1ccc(C(=O)NCC(c2cccnc2)N2CCN(c3ccccc3OC)CC2)cc1 (stereo not drawn) -2.12%
CCc1ccc(C(=O)c2cn(CC(=O)Nc3ccc4c(c3)OCCO4)c3ccc(CC)cc3c2=O)cc1 8.92%
CCCN(CCC)C(=O)c1c[nH]c2ccc(S(=O)(=O)N(C)c3ccc(OCC)cc3)cc2c1=O 2.39%
Cc1c(CCC(=O)NCc2ccc(F)cc2)c(=O)oc2cc(O)ccc12 9.48%
COc1ccc(CCNC(=O)c2ccc3c(Cl)c4c(nc3c2)CCCC4)cc1OC 123%
COCCCNC(=O)C1CCCN(c2ncnc3onc(C)c23)C1 (stereo not drawn) -32.4%
COc1ccc(Cn2c(CNC(=O)Cc3cccc([N+](=O)[O-])c3)nc3cccnc32)cc1 -2.62%
CC(=O)N1CCN(c2nc3c(F)cc(F)cc3s2)CC1 -0.582%
Cc1cccc(N2CCN(C(=O)c3cc4c(=O)[nH]c5ccc(C)cc5c4s3)CC2C)c1 (stereo not drawn) 3.18%
COc1ccc(C2c3c(oc4cc(C)cc(C)c4c3=O)C(=O)N2Cc2ccco2)cc1OC (stereo not drawn) 3.98%
COc1cccc(NC(=O)CSC2=Nc3ccccc3C3=NC(CC(=O)NCc4cccs4)C(=O)N23)c1 (stereo not drawn) 6.64%
CCOC(=O)Cn1c(=O)n(CC2CCCO2)c2nc(-c3ccccc3Cl)nc(C(N)=O)c21 (stereo not drawn) -15.3%
O=C(CCCn1c(=O)c2cccn2c2cccnc21)Nc1ccccc1C(F)(F)F -7.65%
Cc1ccc(CNC(=O)c2c(-c3ccc(Br)cc3)noc2C)o1 4.53%
O=c1c(N2CCc3ccccc3C2)csc2ccc(F)cc12 9.52%
CCOC(=O)c1ccc(CN(Cc2ccc(OC)cc2)S(=O)(=O)c2cccc(C(F)(F)F)c2)cc1 2.35%
COc1ccc(CCNC(=O)c2c(O)nc3c(C)cccn3c2=O)cc1OC 6.89%
COc1ccc(C)cc1NC(=O)c1ccc2nc(Cc3ccccc3)oc2c1 -12.2%
CCn1c2c(c(=O)n3ncc(C(=O)Nc4ccc(C(=O)OC)cc4)c13)CN(Cc1ccc(OC)cc1)CC2 -2.96%
Cc1coc2c1c(C)cc1oc(=O)c(CC(=O)NCCc3ccc(Cl)cc3)c(C)c12 9.54%
Cc1ccc(NC(=O)C(=O)NCC(c2cccnc2)N2CCN(C)CC2)cc1 (stereo not drawn) -8.04%
O=C(NCCc1ccc(Cl)cc1)C(=O)NCC(c1ccco1)S(=O)(=O)c1ccccc1 (stereo not drawn) 2.86%
Cc1c(C(=O)NCc2ccccc2)oc2ccc(S(=O)(=O)N3CCC(C)CC3)cc12 -6.41%
CCCn1c(/C=C/c2ccccc2)nc2ccccc21 -0.912%
CCn1c2ccccc2c2cc(CN3CCN(Cc4ccc(OC)c(OC)c4)CC3)ccc21 -23.5%
Cc1c(C(=O)NCCc2ccc(Cl)cc2)cccc1-n1cnc2cccnc21 -9.75%
COc1ccc(N2CCN(C(=O)c3cc(-c4ccc(C)c(F)c4)on3)CC2)cc1 -2.87%
COc1ccc(-n2c(SCC(=O)NCc3ccccc3)nc3c([nH]c4ccccc43)c2=O)cc1 -8.96%
CC(C)N(C(=O)Cn1cc(S(=O)(=O)Cc2ccc(Cl)cc2)c2ccccc21)C(C)C 4.73%
Nc1nn(-c2ccccc2)nc1C(=O)OCc1c(F)cccc1Cl -0.358%
Cc1ccc(N(Cc2cccs2)C(=O)c2ccco2)cc1 -33.5%
O=C(CCC1N=C2c3ccccc3N=C(SCC(=O)Nc3ccc(F)cc3)N2C1=O)NCc1ccco1 (stereo not drawn) 10.5%
O=C(Nc1ccc2nc3n(c(=O)c2c1)CCCCC3)c1cccc(C(F)(F)F)c1 -8.07%
Cc1cc(C(=O)NCc2ccccc2)c2c(C)nn(-c3cccc(F)c3)c2n1 -5.16%
COc1ccc(Nc2nn(-c3ccc(OC(F)(F)F)cc3)nc2C(C)=O)cc1 -8.72%
COc1ccc(NC(=O)CC2Nc3ccccc3NC2=O)cc1 (stereo not drawn) 12.1%
Cc1ccc(CNc2ccc3cc(S(=O)(=O)N4CCCCC4)ccc3n2)cc1 -6.22%
COc1ccccc1Nc1ncnc2scc(-c3ccc(F)cc3)c12 15.1%
CCCCN(C)C(=O)Cn1cnc2sc(C)c(S(=O)(=O)N3CCC(C)CC3)c2c1=O -1%
COc1cc(OC)c(NC(=O)N2CCC(CN3CCCC3)CC2)cc1Cl -0.0921%
COc1ccc(OC)c(NC(=O)c2ccc3c(Cl)c4c(nc3c2)CCCC4)c1 -2.46%

outcome, inactive:
O=C(Nc1cccc(Cl)c1)C1CCN(c2nc3ccccc3nc2C(F)(F)F)CC1
CCOC(=O)c1sc2ncn(CC(=O)Nc3cccc(C)c3)c(=O)c2c1C
O=C(NCc1ccccc1Cl)c1ccc2c(c1)N(Cc1ccccc1)C(=O)c1ccccc1S2
CCOC(=O)c1[nH]c2ccccc2c1NC(=O)c1c(F)cccc1F
COc1ccc(Nc2ncc(C(=O)N3CCN(c4ccc(OC)cc4)CC3)c3ccccc23)cc1
CCC(CC)C(=O)Nc1ccc(OCc2cc(=O)n3ccc(C)cc3n2)cc1
Cc1ccccc1Nc1nnc(-c2ccc(C)c(S(=O)(=O)N3CCN(C)CC3)c2)c2ccccc12
C#CC(C)(CC)NC(=O)Cn1nnc(-c2ccc(OCc3ccccc3Cl)cc2)n1 (stereo not drawn)
Cc1ccc(NC(=O)Cn2c(SCc3cccc(F)c3)nc3ccncc32)c(C)c1
CC(C)(C)c1ccc(C(=O)Nc2nc3nc(-c4ccccc4)cc(=O)n3[nH]2)cc1
COc1ccc(Br)cc1CNC(=O)CN1C(=O)CCCc2ccccc21
Cc1ccccc1OCC(=O)Nc1ccc(C(=O)OCc2cc(=O)n3c(C)csc3n2)cc1
Cc1ccc2oc(C(=O)Nc3nc(-c4ccc(F)cc4)ns3)c(C)c2c1
COc1ccc(CNC(=O)CSCc2cnn(-c3ccccc3)c2-n2cccc2)cc1OC
Cc1cc(C)cc(NC(=O)c2sc3nc[nH]c(=O)c3c2C)c1
CCOc1ccccc1NC(=O)C1=C(C)Nc2ncnn2C1c1sccc1C (stereo not drawn)
CC1=C(C(=O)Nc2ccccc2C)C(c2cccs2)n2nc(SCc3cc(C)ccc3C)nc2N1 (stereo not drawn)
CCOc1ccc(N(CC)C(=O)c2noc3c2COc2ccc(C)cc2-3)cc1
COc1ccccc1C(=O)Nc1c(C(=O)c2ccccc2)oc2ccccc12
CCOc1ccc(CC(=O)NCCS(=O)(=O)N2CCN(c3ccc(OC)cc3)CC2)cc1
COc1ccc(N2CCN(C(=O)CSc3nc4ccccc4nc3Cc3ccc(Cl)cc3)CC2)cc1
COc1ccc(NC(=O)c2c(N)c(C(=O)c3ccc(OC)cc3)n3ccccc23)cc1
COc1cc(Nc2nc(SCC(=O)c3ccc(Cl)c(Cl)c3)nc3ccccc23)cc(OC)c1
Cc1nn(-c2ccccc2)c2c1N(CC(=O)N1CCN(c3ccccc3F)CC1)C(=O)CS2
Cc1ccc(CNC(=O)c2ccc(CS(=O)(=O)Cc3ccc(C)cc3)o2)cc1
CCOC(=O)c1ccc(Nc2nn3c(=O)c4ccccc4nc3s2)cc1
